# In the supplement of paper PMC8728848:
# The list shows a part of the results.
# What was measured:
# Experiment in all cases: glycan array binding signal (z-score within array); higher = stronger binding
# Details in all cases: glycan notation: IUPAC condensed, linker removed
# Fuc(a1-2)[Gal(a1-3)]Gal = biological target: Fuc(a1-2)[Gal(a1-3)]Gal
# Summary of the method: (§1)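 Glycan array data were curated from 3228 arrays in the Consortium for Functional Glycomics database and kept only where the protein sequence was available. Glycan names were converted to IUPAC-condensed notation, and columns mapping to the same glycan were averaged. The binding signal is a within-array Z-score, averaged across arrays of the same protein sequence at different concentrations or buffers and across linkers. Negative Z-scores can be read as non-binding.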
# [1] = biological target: Fuc(a1-2)[Gal(a1-3)]Gal(b1-3)GlcNAc
# Summary of the method: as §1
# [2] = biological target: Fuc(a1-2)[Gal(a1-3)]Gal(b1-3)GlcNAc(b1-2)Man(a1-3)[Fuc(a1-2)[Gal(a1-3)]Gal(b1-3)GlcNAc(b1-2)Man(a1-6)]Man(b1-4)GlcNAc(b1-4)GlcNAc
# Summary of the method: as §1
# [3] = biological target: Fuc(a1-2)[Gal(a1-3)]Gal(b1-4)Glc
# Summary of the method: as §1
# [4] = biological target: Fuc(a1-2)[Gal(a1-3)]Gal(b1-4)GlcNAc
# Summary of the method: as §1
# [5] = biological target: Fuc(a1-2)[Gal(a1-3)]Gal(b1-4)GlcNAc(b1-2)Man(a1-3)[Fuc(a1-2)[Gal(a1-3)]Gal(b1-4)GlcNAc(b1-2)Man(a1-6)]Man(b1-4)GlcNAc(b1-4)GlcNAc
# Summary of the method: as §1
# [6] = biological target: Fuc(a1-2)[Gal(a1-3)]Gal(b1-4)[Fuc(a1-3)]GlcNAc
# Summary of the method: as §1
# [7] = biological target: Fuc(a1-2)[Gal(a1-4)]Gal(b1-4)GlcNAc
# Summary of the method: as §1
# [8] = biological target: Fuc(a1-2)[GalNAc(a1-3)]Gal
# Summary of the method: as §1
# [9] = biological target: Fuc(a1-2)[GalNAc(a1-3)]Gal(b1-3)GalNAc(a1-3)[Fuc(a1-2)]Gal(b1-4)GlcNAc
# Summary of the method: as §1
# [10] = biological target: Fuc(a1-2)[GalNAc(a1-3)]Gal(b1-3)GlcNAc
# Summary of the method: as §1
# [11] = biological target: Fuc(a1-2)[GalNAc(a1-3)]Gal(b1-3)GlcNAc(b1-2)Man(a1-3)[Fuc(a1-2)[GalNAc(a1-3)]Gal(b1-3)GlcNAc(b1-2)Man(a1-6)]Man(b1-4)GlcNAc(b1-4)GlcNAc
# Summary of the method: as §1
# [12] = biological target: Fuc(a1-2)[GalNAc(a1-3)]Gal(b1-4)Glc
# Summary of the method: as §1
# [13] = biological target: Fuc(a1-2)[GalNAc(a1-3)]Gal(b1-4)GlcNAc
# Summary of the method: as §1
# [14] = biological target: Fuc(a1-2)[GalNAc(a1-3)]Gal(b1-4)GlcNAc(b1-2)Man(a1-3)[Fuc(a1-2)[GalNAc(a1-3)]Gal(b1-4)GlcNAc(b1-2)Man(a1-6)]Man(b1-4)GlcNAc(b1-4)GlcNAc
# Summary of the method: as §1
# [15] = biological target: Fuc(a1-2)[GalNAc(a1-3)]Gal(b1-4)GlcNAc(b1-3)Gal(b1-4)GlcNAc
# Summary of the method: as §1
# [16] = biological target: Fuc(a1-2)[GalNAc(a1-3)]Gal(b1-4)GlcNAc(b1-3)Gal(b1-4)GlcNAc(b1-3)Gal(b1-4)GlcNAc
# Summary of the method: as §1
# [17] = biological target: Fuc(a1-2)[GalNAc(a1-3)]Gal(b1-4)[Fuc(a1-3)]GlcNAc
# Summary of the method: as §1
# [18] = biological target: Fuc(a1-2)[GalNAc(a1-4)]Gal(b1-4)GlcNAc
# Summary of the method: as §1
# [19] = biological target: Fuc(a1-2)[GalNAc(b1-3)]Gal
# Summary of the method: as §1
# Fuc(a1-3)GlcNAc = biological target: Fuc(a1-3)GlcNAc
# Summary of the method: as §1
# [20] = biological target: Fuc(a1-3)[Gal(b1-4)]Glc6S
# Summary of the method: as §1
# [21] = biological target: Fuc(a1-3)[Gal(b1-4)]GlcNAc
# Summary of the method: as §1
# [22] = biological target: Fuc(a1-3)[Gal(b1-4)]GlcNAc(b1-2)Man(a1-3)[Fuc(a1-3)[Gal(b1-4)]GlcNAc(b1-2)Man(a1-6)]Man(b1-4)GlcNAc(b1-4)GlcNAc
# Summary of the method: as §1
# [23] = biological target: Fuc(a1-3)[Gal(b1-4)]GlcNAc(b1-3)Gal(b1-3)[Fuc(a1-4)]GlcNAc
# Summary of the method: as §1
# [24] = biological target: Fuc(a1-3)[Gal(b1-4)]GlcNAc(b1-3)GalNAc
# Summary of the method: as §1
# [25] = biological target: Fuc(a1-3)[Gal(b1-4)]GlcNAc(b1-4)Gal(b1-4)[Fuc(a1-3)]GlcNAc
# Summary of the method: as §1
# [26] = biological target: Fuc(a1-3)[Gal(b1-4)]GlcNAc(b1-4)Gal(b1-4)[Fuc(a1-3)]GlcNAc(b1-4)Gal(b1-4)[Fuc(a1-3)]GlcNAc
# Summary of the method: as §1
# [27] = biological target: Fuc(a1-3)[Gal(b1-4)]GlcNAc(b1-6)[Gal(b1-3)GlcNAc(b1-3)]Gal(b1-4)Glc
# Summary of the method: as §1
# [28] = biological target: Fuc(a1-3)[Gal(b1-4)]GlcNAc6S
# Summary of the method: as §1
binder,measurement,setting,value
"CTLY 1 (Homo sapiens), Q6ZS10 (protein) AITCPEGWLPFEGKCYYFSPSTKSWDEARMFCQENYSHLVIINSFAEHNFVAKAHGSPRVYWLGLNDRAQEGDWRWLDGSPVTLSFWEPEEPNNIHDEDCATMNKGGTWNDLSCYKTTYWICERKGLNDIFEAQKIEWHE",glycan array binding signal (z-score),Fuc(a1-2)[Gal(a1-3)]Gal,-0.231
same,glycan array binding signal (z-score),[1],-0.199
same,glycan array binding signal (z-score),[2],-0.025
same,glycan array binding signal (z-score),[3],-0.246
same,glycan array binding signal (z-score),[4],-0.244
same,glycan array binding signal (z-score),[5],-0.174
same,glycan array binding signal (z-score),[6],-0.207
same,glycan array binding signal (z-score),[7],-0.193
same,glycan array binding signal (z-score),[8],-0.21
same,glycan array binding signal (z-score),[9],-0.242
same,glycan array binding signal (z-score),[10],-0.255
same,glycan array binding signal (z-score),[11],-0.143
same,glycan array binding signal (z-score),[12],-0.246
same,glycan array binding signal (z-score),[13],-0.225
same,glycan array binding signal (z-score),[14],-0.236
same,glycan array binding signal (z-score),[15],-0.256
same,glycan array binding signal (z-score),[16],-0.218
same,glycan array binding signal (z-score),[17],5.5
same,glycan array binding signal (z-score),[18],-0.177
same,glycan array binding signal (z-score),[19],-0.215
same,glycan array binding signal (z-score),Fuc(a1-3)GlcNAc,-0.163
same,glycan array binding signal (z-score),[20],0.111
same,glycan array binding signal (z-score),[21],-0.051
same,glycan array binding signal (z-score),[22],4.09
same,glycan array binding signal (z-score),[23],0.953
same,glycan array binding signal (z-score),[24],-0.221
same,glycan array binding signal (z-score),[25],0.526
same,glycan array binding signal (z-score),[26],4.47
same,glycan array binding signal (z-score),[27],-0.219
same,glycan array binding signal (z-score),[28],-0.066
